According to PMC4336329 (PLoS ONE, 2015):
Among all 310,000 compounds or so, about 2,200 (0.71%) showed an effect of 50% or more. Effects have a minus sign here. This is one part of the list.

biological target: human ether-à-go-go-related gene (hERG) potassium channel (human, UniProt Q12809); test: primary screen, population patch clamp on CHO cells stably expressing hERG
Sequence (Q12809 whole entry, looked up): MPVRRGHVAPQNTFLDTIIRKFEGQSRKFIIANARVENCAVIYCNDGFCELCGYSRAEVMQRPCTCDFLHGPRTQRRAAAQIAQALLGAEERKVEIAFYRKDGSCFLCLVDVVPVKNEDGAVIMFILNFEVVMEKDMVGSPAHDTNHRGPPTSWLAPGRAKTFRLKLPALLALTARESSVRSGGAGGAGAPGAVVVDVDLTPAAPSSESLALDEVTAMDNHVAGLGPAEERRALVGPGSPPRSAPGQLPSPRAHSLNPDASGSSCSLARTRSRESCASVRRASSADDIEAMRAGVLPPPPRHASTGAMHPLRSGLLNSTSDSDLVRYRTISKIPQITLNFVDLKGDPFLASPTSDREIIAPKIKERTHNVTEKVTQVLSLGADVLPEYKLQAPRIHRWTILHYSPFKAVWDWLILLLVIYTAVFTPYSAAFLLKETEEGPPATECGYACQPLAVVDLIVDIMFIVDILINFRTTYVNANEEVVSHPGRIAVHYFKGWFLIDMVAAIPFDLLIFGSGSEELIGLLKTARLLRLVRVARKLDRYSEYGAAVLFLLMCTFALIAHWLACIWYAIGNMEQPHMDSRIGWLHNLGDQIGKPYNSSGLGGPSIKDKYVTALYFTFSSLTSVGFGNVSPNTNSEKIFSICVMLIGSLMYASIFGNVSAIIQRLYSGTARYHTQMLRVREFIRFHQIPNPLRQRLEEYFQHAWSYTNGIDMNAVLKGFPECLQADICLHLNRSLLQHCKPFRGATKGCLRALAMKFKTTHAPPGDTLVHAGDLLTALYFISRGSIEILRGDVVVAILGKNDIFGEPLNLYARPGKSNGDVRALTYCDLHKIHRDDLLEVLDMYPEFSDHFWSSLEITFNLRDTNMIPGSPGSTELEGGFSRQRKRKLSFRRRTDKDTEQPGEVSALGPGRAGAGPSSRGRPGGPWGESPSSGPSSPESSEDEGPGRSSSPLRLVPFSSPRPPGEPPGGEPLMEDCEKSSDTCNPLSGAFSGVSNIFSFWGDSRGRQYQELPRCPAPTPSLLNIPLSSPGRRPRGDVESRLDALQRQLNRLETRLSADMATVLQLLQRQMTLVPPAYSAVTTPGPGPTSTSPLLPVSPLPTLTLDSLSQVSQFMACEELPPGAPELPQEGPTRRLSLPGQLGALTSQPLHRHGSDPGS

SMILES | hERG current change (%, negative = inhibition) at 1uM [%]
O=C1CCCC(O)=C1N=Nc1cccc(S(=O)(=O)N2CCOCC2)c1 | 6.16
CCOC(=O)c1ccccc1NC1c2ccccc2C(=O)N1c1cc(C)ccn1 (centres unmarked) | 12.8
COCc1ccccc1C1=CC(=O)C[C@H](c2ccc(F)cc2)C1 | 3
CC(=O)c1ccccc1OCC(O)CN1CCN(CCN2C(=O)c3cccc4cccc(c34)C2=O)CC1 (centres unmarked) | -73.5
CCCC(=O)Nc1ccccc1NC(=O)c1ccc(OCC)cc1 | 4.54
COc1ccc(NS(=O)(=O)c2cccc(C(=O)NCC(c3ccco3)N(C)C)c2)cc1 (centres unmarked) | -10.1
Cc1c(C(=O)OC(C)C)[nH]c2c1C(=O)CCC2 | 15.5
CC1(C)CN=c2s/c(=C\c3ccc(Cl)cc3)c(=O)n2C1 | 5.15
O=C(NNS(=O)(=O)c1ccc(F)cc1)C1CC(c2cccnc2)=NO1 (centres unmarked) | 14.8
COc1ccc2c(c1OC)C(=O)N(c1cccc(C)c1)C2=O | 9.81
Cc1ccc(NC(=S)N2CCC(c3nc4ccccc4s3)CC2)cc1C | 7.03
COc1ccc(C2Nc3ccccc3C(=O)N2NC(=O)c2ccccc2)cc1OC (centres unmarked) | 8.11
COc1cc2c(cc1NC(=O)CN(C)Cc1nc3ccccc3c(=O)[nH]1)oc1ccccc12 | 12.5
CC(=O)/C=C(\C)N=Nc1c(O)[nH]c2ccccc12 | 15.7
Cc1ncn(C23CC4CC(CC(C4)C2)C3)n1 | 1.98
C#CCOCCOCCOCCNc1nc(N2CCN(C(=O)CCCCCCCCCCNC(=O)Cn3cc(C[C@@H](C)O)nn3)CC2)nc(N2CCN(C(=O)CCCCCCCCCCNC(=O)[C@H](CCCN=C(N)N)n3cc(C[C@@H](C)CC)nn3)CC2)n1 | 11.5
CC(C)c1ccc(NC(=S)N2CCN(C)CC2)cc1 | 11.4
O=S(=O)(Nc1cccc2ccccc12)c1cccs1 | 6.98
COc1ccc(CCNC(=O)CSc2nnc3ccc(-c4ccccn4)nn23)cc1OC | 14.6
COc1ccc(-n2c(=S)[nH]c3cc(C(=O)NCc4cccnc4)ccc3c2=O)cc1 | 19.1
CCOc1ccc(NC(=O)CN(C)C(=O)c2ccncc2)cc1OCC | -0.597
COc1ccccc1NC(=O)CN1CCC(C(=O)c2ccc(F)cc2)CC1 | -7.17

SMILES | hERG current change (%, negative = inhibition) at 1uM [%]
Cc1cccc(NC(=O)NNC(=O)c2cc3occc3[nH]2)c1C | 4.14
C(=C\c1ccco1)/c1ccc2ccccc2n1 | 10.7
O=C1CSC(c2cccnc2)N1c1ccc(F)cc1 (centres unmarked) | 5.62
Cc1nc2scc(C)n2c(=O)c1S(=O)(=O)N1CCN(c2ccccn2)CC1 | 13
N#CCCN(C(=O)COC(=O)COc1ccc(Cl)cc1)c1ccccc1 | -0.133
COc1ccc(/C=N/NC(=O)Cn2nnc3ccccc32)cc1OC | -10.7
Cc1cc(C(F)F)n2nc(C(=O)NCc3ccccc3F)nc2n1 | 14.4
O=C(OCc1ccc([N+](=O)[O-])cc1)c1cc2ccccc2oc1=O | 7.07
O=C(CCc1ccc(S(=O)(=O)NC2CCCCC2)cc1)NCc1ccc(Cl)cc1 | 10.6
CC(O)(CS(=O)(=O)Cc1ccccc1)c1ccccc1 (centres unmarked) | 13.8
O=C1CCC([N+](=O)[O-])C(c2ccc(-c3ccccc3)cc2)N1 (centres unmarked) | 4.46
Cc1nc2ccccc2n1CCOc1ccc([N+](=O)[O-])cc1 | -24.2
O=C(Cn1nnc(-c2ccccc2Cl)n1)N1CCCCC1 | 14
O=C(O)c1ccccc1Sc1c([N+](=O)[O-])cc(C(F)(F)F)cc1[N+](=O)[O-] | 25.8
Cc1onc(-c2ccccc2)c1C(=O)N1CCN(C)CC1 | 5.97
C=CCSc1nnc2c(n1)OC(c1cccnc1)N(C(C)=O)c1ccccc1-2 (centres unmarked) | 0.113
COc1ccc(C(=O)N2CCN(Cc3cn[nH]c3-c3ccc(OC)cc3F)CC2)cc1 | -9.62
O=Nc1c(O)n(Cc2ccc(Cl)c(Cl)c2)c2ccccc12 | 13.6
COc1ccc(S(=O)(=O)NC(C)C(=O)NCc2cccnc2)cc1C (centres unmarked) | -15.9
CCOc1ccc2[nH]c(=O)c(CN(CC3COCCO3)C(=O)c3ccc(C)cc3)cc2c1 (centres unmarked) | 3.63
O=c1c2ccccc2nc(/C=C/c2cc(Br)ccc2O)n1CCCO | 6.3
CC1=C(C(=O)OC2CCCCC2)C(c2cccc([N+](=O)[O-])c2)NC(=O)N1 (centres unmarked) | 11.4

SMILES | hERG current change (%, negative = inhibition) at 1uM [%]
O=S(=O)(Oc1ccccc1)c1cccnc1 | 8.1
OCC[C@H]1C[C@@H](O)[C@H](O)[C@]2(CCc3ccccc3O2)O1 | 9.28
CCn1nnnc1SCC(=O)c1ccc(C)cc1 | -4.25
CSCC[C@H](NC(=O)[C@@H]1Cc2ccccc2CN1)C(=O)NC(C)c1ccccc1 (some centres unmarked) | 14
Nc1nc(NCCCN2CCOCC2)nc(Nc2ccccc2F)c1[N+](=O)[O-] | 10.4
O=C(C1CCCCC1)N1CCc2[nH]c3ccc(F)cc3c2C1 | 7.38
Cc1cccc(NC(=O)c2ccccc2OCC(=O)c2ccccc2)c1 | 16.5
COc1ccccc1NC(=O)C1C2C=CC(C2)C1C(=O)NCc1cccnc1 (centres unmarked) | 4.29
O=C(CN(CC1CCCO1)C(=O)CNS(=O)(=O)c1ccc(F)cc1)NCc1ccccc1 (centres unmarked) | 8.27
CN(CC(=O)Nc1ccc(OC(F)(F)F)cc1)C(=O)Cc1ccc2c(c1)CCC2 | 15.2
CCOc1ccc(S(=O)(=O)N2CCOCC2)cc1NC(=O)C1CCC1 | 8.22
CCC(C)[C@H](NC(=O)N1CC(=O)Nc2ccccc21)C(=O)N[C@@H](Cc1c[nH]c2ccccc12)C(=O)O (some centres unmarked) | 0.677
Cc1ccc(NC(=O)Cn2cccc2)cc1Cl | -8.85
Cc1ccc(C(=O)Nc2ccc(S(=O)(=O)NCc3ccco3)cc2)cc1 | -2.03
Cc1cccc(NC(=O)CNC(=O)c2cccc(-n3cccc3)c2)c1C | 0.397
CS(=O)(=O)c1ccc2nc(NC(=O)C3C4C=CC(C4)C3C(=O)O)sc2c1 (centres unmarked) | 10.4
CCOC(=O)CCc1c(C)c2ccc(OCc3cc([N+](=O)[O-])ccc3OC)c(C)c2oc1=O | 7.94
Cc1cc2ccccc2cc1CN1CCOCC1 | 12.3
CC(C)C(C)N(Cc1ccc(C(=O)O)cc1)C(=O)c1ccc2ccccc2n1 (centres unmarked) | 4.93
CCn1c2ccccc2c2cc(NC(=O)c3ccc(Br)o3)ccc21 | 10.9
O=C(Nc1cccnc1)c1ccc(Cl)c(S(=O)(=O)N2CCc3ccccc32)c1 | 2.73
OCc1cn(-c2ccccc2)nc1-c1cccnc1 | 11.3

SMILES | hERG current change (%, negative = inhibition) at 1uM [%]
CCN1CCN(C(=O)N(Cc2ccc(Cl)cc2)S(=O)(=O)c2ccc(C)cc2)CC1 | -12.5
CC1(C)CC(CC(=O)O)CC(C)(C)N1.Cl | 6.08
COc1ccccc1N1CCN(c2nccc(C)n2)CC1 | 9.04
Cc1[nH]c2c(C)cccc2c1CCNC(=O)c1ccc2c(c1[N+](=O)[O-])C(=O)c1ccccc1C2=O | 15
Cc1ccc(C)c(S(=O)(=O)N2CCCOC2CNC(=O)C(=O)NC2CC2)c1 (centres unmarked) | 19.9
Cc1ccc(CNC(=O)CN(C)S(=O)(=O)c2ccc(F)cc2)cc1 | 3.37
CCOc1ccc(NC(=O)COC(=O)c2cc([N+](=O)[O-])ccc2N2CCOCC2)cc1 | -5.99
CCOc1ccc(C(=O)C2CCN(C(=O)c3ccc([N+](=O)[O-])cc3)CC2)cc1 | -81.1
Cc1ccc(NC(=O)C2CC(=O)n3c(nc4ccccc43)N2)cc1C (centres unmarked) | 7.27
CSc1nc2ccccc2c(=O)n1C1CCCCC1 | 12.4
COc1ccc(C2(CNC(=O)Cc3ccc(OC)c(OC)c3)CCCC2)cc1 | -6.09
c1ccc2c(CCNC3=NCCC3)c[nH]c2c1 | 11.9
Nc1nc(NCc2ccco2)nc(N2CCN(Cc3ccccc3)CC2)c1[N+](=O)[O-] | -10
CN(CC(=O)Nc1ccccc1C(F)(F)F)C(=O)COc1ncnc2sccc12 | 6.31
O=C(O)CCn1nnc(-c2cccs2)n1 | 7.06
O=C(N/N=C\c1ccc2c(c1)OCO2)c1cncc(Br)c1 | 9.36
O=C(COc1ccccc1[N+](=O)[O-])Nc1ccc2oc(=O)ccc2c1 | 17
O=C(Nc1nnc(-c2ccc3c(c2)CCCC3)o1)c1ccc(Cl)cc1Cl | 4.18
CC(C)(C)NC(=O)CSc1nsc(SCC(=O)NC(C)(C)C)c1C#N | 6.97
CSCCC(N=C(NS(=O)(=O)c1ccc(Br)cc1)c1ccccc1)C(=O)O (centres unmarked) | 22.9
